Among all 39,000 compounds or so, about 220 (0.56%) showed activity. The list shows a part of the results.
test system: Escherichia coli K-12 BW25113; experiment: relative growth (OD600 normalised to plate interquartile mean) (fraction); higher = less growth inhibition, active = 0.2 or less; details: 50 µM; LB; incubation time: overnight (16-24 h)
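Also: static incubation at 37 °C against the wild-type strain, values averaged over two biological replicates.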

| SMILES | relative growth |
| --- | --- |
| Cc1noc(C)c1S(=O)(=O)N(C)C[C@@H]1Oc2ccc(NC(=O)NC(C)C)cc2CC(=O)N([C@H](C)CO)C[C@@H]1C | inactive: 1.02 |
| CN1CCC[C@H]1CCO | inactive: 1 |
| CCN(CCCc1ccccc1)CCCc1ccccc1.O=C(O)CC(O)(CC(=O)O)C(=O)O | inactive: 0.881 |
| CC(C)NC(=O)N(C)C[C@H]1Oc2c(NC(=O)Nc3ccc4c(c3)OCO4)cccc2C(=O)N([C@H](C)CO)C[C@@H]1C | inactive: 0.992 |
| C[C@H](CO)N1C[C@H](C)[C@@H](CN(C)CC2CCCCC2)OCCCC[C@H](C)Oc2ccc(NC(=O)Nc3ccc(F)cc3)cc2C1=O | inactive: 1 |
| COc1ccc(S(=O)(=O)N(C)C[C@@H]2Oc3ccc(NC(=O)Cc4ccccc4)cc3C(=O)N([C@@H](C)CO)C[C@@H]2C)cc1 | inactive: 1 |
| COCC(=O)N1C[C@@H](C)[C@@H](OC)CN(C)C(=O)c2ccc(NC(=O)c3cc(C)on3)cc2OC[C@H]1C | inactive: 1.04 |
| CC(C)NC(=O)Nc1ccc2c(c1)C(=O)N([C@H](C)CO)C[C@@H](C)[C@@H](CN(C)S(=O)(=O)c1cn(C)cn1)O2 | inactive: 1 |
| O=C(C[C@@H]1CC[C@@H]2NC[C@@H](O)COC[C@H]2O1)NCCN1CCCCC1 | inactive: 0.988 |
| C[C@H]1CCc2c(sc(/N=C/C=C/c3ccccc3)c2C#N)C1 | inactive: 0.987 |
| N#CCN1CCNCC1 | inactive: 0.995 |
| C[C@@H]1CN([C@@H](C)CO)C(=O)Cc2cc(NS(=O)(=O)c3ccccc3)ccc2O[C@H]1CN(C)Cc1ccncc1 | inactive: 0.992 |
| COc1ccc(S(=O)(=O)N(C)C[C@@H]2OCCCC[C@H](C)Oc3ccc(NC(=O)Nc4c(C)noc4C)cc3C(=O)N([C@@H](C)CO)C[C@H]2C)cc1 | inactive: 1.03 |
| CC(=O)N1[C@H](CO)[C@H](c2ccccc2)C12CN(C(=O)CN1CCOCC1)C2 | inactive: 1 |
| C[C@H](CO)N1C[C@H](C)[C@H](CN(C)S(=O)(=O)c2ccc(F)cc2)Oc2ccc(NC(=O)Nc3ccc(C(F)(F)F)cc3)cc2C1=O | inactive: 0.988 |
| COc1cc(C)c(C(=O)O)c(OC(C)=O)c1 | inactive: 0.993 |
| COCOc1ccc2cc(Br)ccc2c1-c1c(OCOC)ccc2cc(Br)ccc12 | inactive: 1.13 |
| C[C@@H]1CCCCO[C@@H](CN(C)S(=O)(=O)c2cccs2)[C@H](C)CN([C@H](C)CO)C(=O)c2cc(NS(C)(=O)=O)ccc2O1 | inactive: 0.978 |
| COc1ccc(NC(=O)Nc2ccc3c(c2)C(=O)N([C@H](C)CO)C[C@@H](C)[C@H](CN(C)S(=O)(=O)c2cn(C)cn2)O3)cc1 | inactive: 0.998 |
| C[C@H](CO)N1C[C@H](C)[C@H](CN(C)S(=O)(=O)c2ccc(-c3ccccc3)cc2)OCc2cnnn2CCCC1=O | inactive: 1.02 |
| CN(C)C(=O)N[C@H]1CN(S(C)(=O)=O)[C@H]2CCCO[C@@H]12 | inactive: 0.999 |

| SMILES | relative growth |
| --- | --- |
| C[C@@H]1CN([C@H](C)CO)C(=O)Cc2cc(N(C)C)ccc2O[C@@H]1CN(C)S(=O)(=O)c1ccc(F)cc1 | inactive: 1 |
| COCC(=O)N1C[C@@H](C(=O)N2CCCO2)C[C@@H]2OCC[C@@H]21 | inactive: 0.997 |
| Nc1nccc2c1ncn2[C@@H]1C=C(CO)[C@@H](O)[C@H]1O | inactive: 0.997 |
| C[C@@H]1CN([C@@H](C)CO)C(=O)Cc2cc(NS(=O)(=O)c3cccs3)ccc2O[C@H]1CN(C)S(=O)(=O)c1ccc(F)cc1 | inactive: 0.959 |
| C[C@@H]1CN([C@@H](C)CO)C(=O)c2cccc(NC(=O)c3ccc(-c4nccs4)cc3)c2O[C@H]1CN(C)Cc1ccc(Oc2ccccc2)cc1 | inactive: 1.03 |
| C[C@H](CO)N1C[C@H](C)[C@H](CN(C)S(=O)(=O)c2cn(C)cn2)Oc2c(NC(=O)NC3CCCCC3)cccc2C1=O | inactive: 1 |
| CN(C)C(=O)COC[C@H]1CN(S(C)(=O)=O)Cc2nnn(C)c21 | inactive: 1 |
| C[C@@H]1CN([C@@H](C)CO)S(=O)(=O)c2ccc(C#CCN(C)C)cc2O[C@@H]1CN(C)Cc1ccccn1 | inactive: 1 |
| COC(=O)C[C@H]1CC[C@@H](N)[C@@H](CO)O1 | inactive: 1.01 |
| CN(Cc1ccc(C(C)(C)C)cc1)Cc1cccc2ccccc12 | inactive: 0.968 |
| C[C@@H]1CN([C@@H](C)CO)C(=O)c2cc(NC(=O)Nc3ccc4c(c3)OCO4)ccc2O[C@@H]1CN(C)Cc1ccc(C(F)(F)F)cc1 | inactive: 1.02 |
| COc1ccc(CN(C)C[C@H]2OCCCC[C@@H](C)Oc3ccc(NC(=O)NC4CCCCC4)cc3C(=O)N([C@@H](C)CO)C[C@@H]2C)cc1 | inactive: 0.991 |
| O=C(CCCCCCC(=O)Nc1ccc([C@@H]2O[C@H](CSc3ccncc3)C[C@H](c3ccccc3)O2)cc1)NO | inactive: 0.972 |
| COC(=O)[C@H]1NCCS1 | inactive: 0.99 |
| CCCN(C)C[C@H]1OCCCC[C@@H](C)Oc2ccc(NC(=O)Nc3ccc(OC)cc3)cc2C(=O)N([C@H](C)CO)C[C@@H]1C | inactive: 1.02 |
| CCS(=O)(=O)N1C[C@]2(CCN(CC2)S(=O)(=O)c2cn(cn2)C)c2c([nH]c3cc(ccc23)OC)[C@@H]1CO | inactive: 0.965 |
| COCC(=O)N(C)C[C@H]1Oc2cc(C#CCN(C)C)ccc2S(=O)(=O)N([C@@H](C)CO)C[C@H]1C | inactive: 1.02 |
| C[C@H](CO)N1C[C@H](C)[C@H](CN(C)Cc2ccc(-c3ccccc3)cc2)Oc2ccc(NS(=O)(=O)c3ccc(Cl)cc3)cc2CC1=O | inactive: 0.989 |
| C[C@H]1CN([C@@H](C)CO)S(=O)(=O)c2ccc(Br)cc2O[C@H]1CN(C)C(=O)Cc1ccccn1 | inactive: 0.965 |
| O=C(CCCCCCCC(=O)NCCO)NCCO | inactive: 0.892 |
| C[C@@H]1CCCCO[C@H](CN(C)CC2CC2)[C@@H](C)CN([C@H](C)CO)C(=O)c2cc(NC(=O)Cc3ccccc3)ccc2O1 | inactive: 0.985 |

| SMILES | relative growth |
| --- | --- |
| C[C@@H]1CN([C@@H](C)CO)C(=O)Cc2cc(NS(=O)(=O)c3ccc(Cl)cc3)ccc2O[C@@H]1CN(C)S(C)(=O)=O | inactive: 1.02 |
| C[C@@H]1CN([C@@H](C)CO)C(=O)c2cc(NC(=O)C3CC3)ccc2O[C@H]1CN(C)Cc1ccc(-c2ccccc2)cc1 | inactive: 1.02 |
| C[C@@H]1CN([C@H](C)CO)C(=O)Cc2cc(NC(=O)c3ccncc3)ccc2O[C@H]1CN(C)S(=O)(=O)c1cccs1 | inactive: 0.971 |
| COc1ccccc1S(=O)(=O)N(C)C[C@@H]1Oc2c(NC(=O)Nc3cccc4ccccc34)cccc2C(=O)N([C@@H](C)CO)C[C@H]1C | inactive: 0.96 |
| COc1ccc(S(=O)(=O)Nc2ccc3c(c2)C(=O)N([C@@H](C)CO)C[C@H](C)[C@@H](CN(C)CC2CCCCC2)OCCCC[C@H](C)O3)cc1 | inactive: 0.986 |
| Cc1noc(C)c1NC(=O)Nc1ccc2c(c1)C(=O)N([C@@H](C)CO)C[C@@H](C)[C@@H](CN(C)S(=O)(=O)c1ccc(F)cc1)OCCCC[C@@H](C)O2 | inactive: 1 |
| CN(C)CCCNC(=O)C[C@@H]1CC[C@H]2[C@H](COc3ccc(NC(=O)c4ccccc4F)cc3C(=O)N2C)O1 | inactive: 0.979 |
| C[C@H](CO)N1C[C@H](C)[C@H](CN(C)S(=O)(=O)c2ccc(Cl)cc2)OCCCC[C@H](C)Oc2ccc(NC(=O)Nc3ccc4c(c3)OCO4)cc2C1=O | inactive: 1 |
| Cc1ccc(S(=O)(=O)Nc2ccc3c(c2)C(=O)N([C@@H](C)CO)C[C@H](C)[C@H](CN(C)Cc2ccc4c(c2)OCO4)OCCCC[C@H](C)O3)cc1 | inactive: 1 |
| CC(=O)Nc1ccc(S(=O)(=O)NC(=O)Cn2nnc(COc3ccc(C)cc3)c2-c2ccccc2)cc1 | inactive: 0.974 |
| C[C@@H]1CN([C@@H](C)CO)C(=O)c2cccc(NC(=O)Nc3ccc(F)cc3)c2O[C@@H]1CN(C)CC1CCCCC1 | inactive: 0.964 |
| O=C(O)[C@@H]1CC(=O)N(Cc2cccnc2)C1 | inactive: 0.973 |
| CC(=O)N(C)C[C@@H]1Oc2ncc(C#C[C@@H](C)O)cc2C(=O)N([C@@H](C)CO)C[C@H]1C | inactive: 1.01 |
| C[C@@H]1CN([C@@H](C)CO)C(=O)c2cc(NS(=O)(=O)c3ccc(F)cc3)ccc2O[C@@H](C)CCCCO[C@H]1CN(C)C(=O)Nc1ccc(F)cc1 | inactive: 1.02 |
| C[N+](C)(C)CCCCNC(=O)[C@@H]1C[C@@H]2C(=O)N[C@@H](CCCC[N+](C)(C)C)C(=O)N2[C@@H]1c1cccc(OCCO)c1 | inactive: 0.975 |
| CNC(=O)C[C@@H]1CC[C@H]2[C@@H](COC[C@H](O)CN2C(=O)c2ccc3c(c2)OCO3)O1 | inactive: 1.02 |
| COc1ccc(S(=O)(=O)N(C)C[C@@H]2OCCCC[C@H](C)Oc3ccc(NC(=O)Nc4c(C)noc4C)cc3C(=O)N([C@@H](C)CO)C[C@@H]2C)cc1 | inactive: 0.988 |
| Cc1noc(C)c1S(=O)(=O)N(C)C[C@@H]1Oc2c(NC(=O)C3CCOCC3)cccc2C(=O)N([C@H](C)CO)C[C@@H]1C | inactive: 1.01 |
| C[C@H]1CN([C@@H](C)CO)C(=O)c2cc(-c3ccncc3)cnc2O[C@@H]1CN(C)C(=O)Nc1ccc2c(c1)OCO2 | inactive: 0.976 |
| COc1ccc(CN(C)C[C@@H]2OCCCC[C@H](C)Oc3ccc(NC(=O)NC(C)C)cc3C(=O)N([C@H](C)CO)C[C@H]2C)cc1 | inactive: 0.996 |
| Cc1ccc(S(=O)(=O)N(C)C[C@H]2Oc3c(NS(=O)(=O)c4ccc(F)cc4)cccc3C(=O)N([C@@H](C)CO)C[C@H]2C)cc1 | inactive: 1.03 |
